# From PubChem BioAssay AID1460 (National Center for Advancing Translational Sciences (NCATS), 2008)
# In all, about 270,000 compounds went through this assay and about 5,800 (2.1%) were called active. Inconclusive results, whose numbers are uncertain, are shown with a selection of clear calls. The call rests on the fitted dose curve; in most records, active means well fitted inhibition curve with a large enough effect; inconclusive means small, poorly fitted or top-dose-only effect; inactive means flat fitted curve, though single readings scatter. A potency beside an inconclusive call is a rough fit, not a confirmed value.
# Target: Microtubule-associated protein tau (Homo sapiens) (UniProt P10636)
# Experiment: qHTS for Inhibitors of Tau Fibril Formation, Thioflavin T Binding; further: nearly all actives have a fitted effect of over 55% in size
# Settings: recombinant tau K18 P301L (four-repeat tau fragment), heparin-induced fibrillization, ThT fluorescence; series mostly up to 57.4 µM; activity, negative = inhibition: at the top concentration
# Outline: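 K18 P301L tau (15 uM + 0.24 uM Alexa 594-tagged), heparin 20 uM, NaOAc pH 7, 6 h 37 C; ThT 30 uM, 1 h RT, ex 450/em 510 nm.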
# On the % scale 0 is the no-effect control and ±100 the full control effect; potency means the concentration at half of the fitted maximal effect; tags describe the fitted curve by direction and shape.
# Chain of UniProt P10636 (P10636 whole entry, looked up): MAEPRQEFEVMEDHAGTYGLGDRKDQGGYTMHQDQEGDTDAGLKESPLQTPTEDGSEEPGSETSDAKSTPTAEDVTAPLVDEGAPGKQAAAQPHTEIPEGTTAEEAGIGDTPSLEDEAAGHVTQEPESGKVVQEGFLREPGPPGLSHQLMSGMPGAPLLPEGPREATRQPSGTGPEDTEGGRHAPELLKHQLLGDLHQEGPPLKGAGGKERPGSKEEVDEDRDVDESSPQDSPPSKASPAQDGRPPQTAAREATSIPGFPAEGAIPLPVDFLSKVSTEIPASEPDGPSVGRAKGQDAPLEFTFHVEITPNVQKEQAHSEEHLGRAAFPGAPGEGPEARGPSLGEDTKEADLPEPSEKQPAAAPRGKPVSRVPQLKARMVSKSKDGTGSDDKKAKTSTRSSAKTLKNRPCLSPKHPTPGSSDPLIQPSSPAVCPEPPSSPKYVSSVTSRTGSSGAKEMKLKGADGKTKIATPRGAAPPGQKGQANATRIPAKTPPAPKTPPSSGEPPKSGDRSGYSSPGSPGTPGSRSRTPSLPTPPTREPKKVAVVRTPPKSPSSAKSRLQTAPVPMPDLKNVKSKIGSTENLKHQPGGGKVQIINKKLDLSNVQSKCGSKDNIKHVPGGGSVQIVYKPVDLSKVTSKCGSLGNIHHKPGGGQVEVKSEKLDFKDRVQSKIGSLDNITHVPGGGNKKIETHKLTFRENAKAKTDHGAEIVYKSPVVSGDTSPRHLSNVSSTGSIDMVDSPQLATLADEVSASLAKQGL
Structure (SMILES),Potency,"activity, negative = inhibition"
COc1ccc(CCC(=O)OCC(=O)c2ccc(C)cc2)cc1,"inconclusive: 7.08 µM [inhibitor, partial curve]",
CCCCNC(=O)Nc1c(C)cc(SC#N)cc1C,active: 22.4 µM,
COc1ccc(C(=O)/C=C/c2ccc(OC3CSC3)cc2)cc1,"inconclusive: 7.94 µM [inhibitor, partial curve]",
CCCc1cc(C(N)=O)c(NC(=O)C2CCCO2)s1 (stereo not given),"inconclusive: 25.1 µM [inhibitor, partial curve]",
CC1=CC2=NC(=O)/C(=C\c3cccn3CCOc3ccccc3C)C(=N)N2O1,"inconclusive: 17.8 µM [inhibitor, partial curve]",
CCOC(=O)c1c(C)n(-c2ccc(C)cc2)c2c(C(C(C)=O)C(=O)O)c(Br)c(O)c(O)c12 (stereo not given),"inconclusive: 22.4 µM [inhibitor, partial curve]",
CCOc1ccc(N2CC(NC(=O)C(=O)c3c[nH]c4ccccc34)CC2=O)cc1 (stereo not given),,inactive: -8.41%
COc1ccc(-c2cc(C(F)(F)F)c(C#N)c(SCC(=O)O)n2)cc1OC,"inconclusive: 17.8 µM [inhibitor, partial curve, poor fit]",
O=C(c1cc2ccccc2oc1=O)N1CCN(c2ccc(N3CCOCC3)nn2)CC1,"inconclusive: 3.98 µM [inhibitor, partial curve, poor fit]",
COC(=O)c1ccc(OCC2c3cc(OC)c(OC)cc3CCN2C(=O)Cc2ccc(OC)cc2)cc1 (stereo not given),,inactive: -6.73%
COc1c(Cl)cccc1-c1cn2ccc(C)cc2n1,"inconclusive: 1.26 µM [inhibitor, full curve, poor fit]",
Oc1nc(Nc2ccc(F)cc2)sc1/C=C1\C=Nc2ccccc21,active: 4.47 µM,
C/C(=N\NC(=O)CSc1nc(C)cc(C)n1)c1ccc2c(c1)OCCO2,"inconclusive: 10 µM [inhibitor, partial curve]",
COc1ccc(N2C(=O)CC(Sc3nc4c(cc3C#N)CCC4)C2=O)cc1 (stereo not given),"inconclusive: 11.2 µM [inhibitor, partial curve]",
CC(Sc1nnc(N)s1)C(=O)Nc1ccc(N2CCOCC2)cc1 (stereo not given),"inconclusive: 10 µM [inhibitor, partial curve, poor fit]",
O=C(CCl)Nc1cccc(S(=O)(=O)N2CCCCCC2)c1,,inactive: -6.76%
O=C(Cn1c(=O)n(Cc2nc(-c3ccccc3)no2)c(=O)c2ccccc21)Nc1cccc(C(F)(F)F)c1,,inactive: 18.9%
CCc1cc2cc(C)ccc2nc1SCC(=O)Nc1cc(C)on1,,inactive: 5.04%
O=S(=O)(Nc1ccc2c3c(cccc13)CC2)c1ccc(F)cc1,,inactive: -4.46%
CCN(CC)c1ccc(NS(=O)(=O)c2ccc3c(c2)oc(=O)n3C)c(C)c1,,inactive: -7.89%
COC(=O)CC1C(=O)NCCN1C(=O)CSc1nc2ccccc2o1 (stereo not given),,inactive: -1.06%
Nc1cc(-c2ccco2)no1,"inconclusive: 25.1 µM [inhibitor, single point]",
Cc1cccc2sc(N(Cc3cccnc3)C(=O)CCc3ccccc3)nc12,"inconclusive: 15.8 µM [inhibitor, partial curve, poor fit]",
Cc1ccc2[nH]c(=O)c(-c3nc4cc(C)ccn4c3NCc3ccco3)cc2c1,"inconclusive: 2.24 µM [inhibitor, full curve, poor fit]",

Structure (SMILES),Potency,"activity, negative = inhibition"
COc1ccccc1N(C(=O)NCc1ccccc1)C1=NCC(C)S1 (stereo not given),"inconclusive: 31.6 µM [inhibitor, partial curve]",
O=[N+]([O-])c1ccccc1NCCNc1ncc(C(F)(F)F)cc1Cl,"inconclusive: 3.16 µM [inhibitor, full curve]",
Cc1c(NC(=O)/C(C#N)=C/c2ccc(-c3ccc(Cl)c(Cl)c3)o2)c(=O)n(-c2ccccc2)n1C,active: 15.8 µM,
O=C(O)c1ccc2c(c1)ncn2C1CCCCCC1,,inactive: -4.68%
O=Cc1ccc(N2CCCC2)c(F)c1,,inactive: -7.82%
Cc1oc(-c2ccc(Cl)cc2)nc1CS(=O)CC(=O)NCCN1CCCC1 (stereo not given),"inconclusive: 28.2 µM [inhibitor, partial curve, poor fit]",
O=C(NC1CC(=O)N(c2ccc(F)cc2)C1)c1ccc(S(=O)(=O)N2CCCCC2)cc1 (stereo not given),,inactive: 1.27%
O=C(N/N=C/c1c(Cl)cccc1Cl)c1ccc(F)cc1,,inactive: -21.1%
COc1ccc(Nc2nnc(SCc3cc(=O)n4ccsc4n3)s2)cc1,"inconclusive: 22.4 µM [inhibitor, partial curve]",
C/C(=N\NC(=O)c1ccc(Br)cc1)C1C(=O)c2ccccc2C1=O,active: 3.98 µM,
CCCCCOc1ccc(Br)cc1/C(C)=N/NC1=NCCN1,"inconclusive: 31.6 µM [inhibitor, partial curve, poor fit]",
CCN(CC)c1ccc(NC(=O)C2CCN(c3nnc(-n4cccc4)s3)CC2)c(C)c1,"inconclusive: 2.24 µM [inhibitor, partial curve]",
Cc1cc(C(=O)COc2cccnc2[N+](=O)[O-])c(C)n1-c1ccccc1F,"inconclusive: 5.01 µM [inhibitor, partial curve]",
CC(=O)OC1CCC23CC1(C)CCC2C(C)(C)CC3OC(C)=O (stereo not given),,inactive: 0.655%
O=C(O)CCc1ccc(-c2ccc(Cl)cc2)n1CCC(=O)O,,inactive: -16.5%
O=C(CSc1nccn1Cc1ccccc1)NCc1ccco1,,inactive: -14.6%
CCOC(=O)c1cc(-c2ccc(OC)cc2)n(CCC(=O)Nc2ccccc2OC)c1C,,inactive: -3.97%
O=C(C[n+]1ccc(-c2cc(C(=O)Nc3cccc(C(F)(F)F)c3)c3ccccc3n2)cc1)c1cccc([N+](=O)[O-])c1,"inconclusive: 17.8 µM [inhibitor, partial curve]",
Cc1ccc(/C=C2\SC(=S)N(Cc3ccccc3)C2=O)o1,active: 15.8 µM,
CC1=C(c2ccc(Cl)cc2)S(=O)(=O)NC1=NCCCN1CCN(c2cc(C)ccc2C)CC1,"inconclusive: 17.8 µM [inhibitor, single point]",
CC1CC2C3CCC4=CC(=O)C=C[C@]4(C)[C@@]3(Cl)C(O)C[C@]2(C)C1(OC(=O)c1ccco1)C(=O)CCl (stereo not given in full),,inactive: 1.81%
COc1ccc(-c2nc(SCC(=O)NC3CCCC3)c(-c3ccc(F)cc3)[nH]2)cc1,"inconclusive: 17.8 µM [inhibitor, single point]",
O=C(NCCCN1CCCCC1)c1sc2ncccc2c1-n1cccc1,,inactive: 10.5%
O=C(/C(=C/c1ccc(Cl)cc1)c1nc2ccccc2[nH]1)c1ccccc1,active: 39.8 µM,

Structure (SMILES),Potency,"activity, negative = inhibition"
O=C(Oc1oc(-c2ccco2)nc1C=Nc1ccc(Cl)cc1)c1ccco1,"inconclusive: 25.1 µM [inhibitor, partial curve]",
COc1cc(/C=C(\C#N)C(=O)NCC2CCCO2)ccc1O (stereo not given),inactive,
CCOC(=O)c1cc(CC)sc1N1C(=O)CC(Sc2ccccc2C(=O)O)C1=O (stereo not given),"inconclusive: 28.2 µM [inhibitor, partial curve]",
O=C(C=C=Nc1ccccc1)C(=O)N=C=Cc1ccccc1,active: 10 µM,
O=C(Nc1cc(-c2nc3ccccc3o2)ccc1Cl)c1sc2c([N+](=O)[O-])cccc2c1Cl,"inconclusive: 39.8 µM [inhibitor, single point]",
Cc1ccc(NC(=O)Cn2c(=O)n(Cc3nc(-c4ccccc4)no3)c(=O)c3cc4c(cc32)OCO4)cc1F,,inactive: 19%
CCOC(=O)c1c(C(=O)OCC)c(C)n(CCc2ccccc2)c1C,"inconclusive: 31.6 µM [inhibitor, single point]",
CS(=O)(=O)c1ccc(S(=O)CC(=O)OCc2ccccc2)c([N+](=O)[O-])c1 (stereo not given),"inconclusive: 3.16 µM [inhibitor, full curve]",
Cc1ccc(C(=O)Nc2ccc3c(c2)n(C)c(=O)c(=O)n3C)cc1,"inconclusive: 5.01 µM [inhibitor, partial curve]",
Cc1nnc2n(C3CCCCC3)c(=O)c3c4c(sc3n12)CCC4,active: 12.6 µM,
Cc1ccc2c(c1)c1c3n2CCN(C(=O)C2CC2)C3CCC1 (stereo not given),"inconclusive: 17.8 µM [inhibitor, partial curve]",
CC(=O)Nc1ccc(NC(=O)CCc2nc3cccnc3n2Cc2cccs2)cc1,"inconclusive: 7.94 µM [inhibitor, full curve]",
COc1ccccc1CN(C(=O)CCl)C(C(=O)NC1CCCCC1)c1ccncc1 (stereo not given),"inconclusive: 25.1 µM [inhibitor, partial curve]",
CCn1nc(C)c2c(-c3ccccc3)cc(=O)n(C(C)C(=O)NCCC(C)C)c21 (stereo not given),,inactive: -13.8%
COc1ccc2c(CC(=O)OCC(=O)Nc3cc(C)c(C)cc3[N+](=O)[O-])coc2c1,"inconclusive: 15.8 µM [inhibitor, partial curve]",
CC(C)c1ccc(Cn2c(COc3ccccc3)nc3ccccc32)cc1,"inconclusive: 25.1 µM [inhibitor, single point]",
O=C(c1cc(-c2ccc(Cl)cc2)n(-c2ccc(Cl)c(Cl)c2)n1)N1CCOCC1,"inconclusive: 17.8 µM [inhibitor, partial curve]",
CCCCC(=O)Nc1cccc(NC(=O)c2cccc([N+](=O)[O-])c2)c1,,inactive: -9.02%
COc1ccc(/C=C/C(=O)NC(=S)NNC(=O)c2cccs2)cc1,"inconclusive: 1.26 µM [inhibitor, full curve]",
O=C(Oc1ccc(N(C(=O)c2ccncc2)S(=O)(=O)c2ccc(Cl)cc2)cc1)c1ccncc1,"inconclusive: 15.8 µM [inhibitor, partial curve]",
COCCCNC(=O)c1c(NC(=O)Cc2coc3c(C)c(C)ccc23)sc2c1CCCC2,"inconclusive: 3.98 µM [inhibitor, partial curve, poor fit]",
Cc1cc(C(F)(F)F)c2c(N)c(C(=O)Nc3cc(C)on3)sc2n1,"inconclusive: 0.501 µM [inhibitor, full curve, poor fit]",
